# From the supplement of paper PMC12217912
# This is one part of the list. Sequences were assembled here from the parent chain. Inactive controls read about 0.05.
# B1: TEV protease; numbered along this chain (parent)
# chain: MGESLFKGPRDYNPISSSICHLTNESDGHTTSLYGIGFGPFIITNKHLFRRNNGTLVVQSLHGVFKVKDTTTLQQHLVDGRDMIIIRMPKDFPPFPQKLKFREPQREERICLVTTNFQTKSMSSMVSDTSCTFPSGDGIFWKHWIQTKDGQCGSPLVSTRDGFIVGIHSASNFTNTNNYFTSVPKNFMELLTNQEAQQWVSGWRLNADSVLWGGHKVFMVKPEEPFQPVKEATQL
# Variants of: B1
# Assay: raw area under fraction-flipped curve 0-4 h after induction (AUC4h, not background-subtracted), DNA-recorder readout of cleavage of the substrate (dimensionless); higher = more cleavage of the substrate by the protease variant
# Conditions: temperature: 34 °C; time window: 0-4 h after rhamnose induction
# Description: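 In vivo DNA recorder in E. coli TOP10(DE3) ΔrhaA at 34 °C. Each TEVp single-site mutant (parent TEVp 0) is paired with a single-site variant of the 7-mer TEVs (canonical ENLYFQ|S). The substrate sits between flexible linkers in a Bxb1-sfGFP-TEVs-SsrA fusion, so cleavage stabilises Bxb1 and speeds flipping of a recombination array, read by NGS. The value is the raw area under the fraction-flipped curve over 0-4 h after rhamnose induction (AUC4h), with ≥20 reads per time point. It is not background-subtracted; inactive controls average about 0.047.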
# 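Further: Bxb1 expression induced with 0.2% (w/v) L-rhamnose at OD600 near 0.5, cultures sampled hourly, flipped fraction per protease–substrate barcode pair counted by paired-end Illumina sequencing.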
Variant,area with substrate ENAYFQS,area with substrate ENCYFQS,area with substrate ENDYFQS,area with substrate ENEYFQS,area with substrate ENGYFQS,area with substrate ENHYFQS,area with substrate ENTYFQS,area with substrate ENVYFQS,area with substrate ENFYFQS,area with substrate ENKYFQS,area with substrate ENPYFQS,area with substrate ENIYFQS,area with substrate ENMYFQS,area with substrate ENSYFQS,area with substrate ENNYFQS,area with substrate ENQYFQS,area with substrate ENRYFQS,area with substrate ENWYFQS,area with substrate ENYYFQS
G8F,0.0708,0.072,0.102,0.0677,0.0344,0.048,0.0645,0.111,–,–,–,–,–,–,–,–,–,–,–
G8P,0.0479,–,0.0512,–,–,0.0553,–,0.0875,0.0403,0.0527,0.0536,–,–,–,–,–,–,–,–
G8A,0.0417,–,0.0618,0.0541,0.0722,–,–,0.0595,0.0506,–,0.0776,0.116,0.0794,0.0577,–,–,–,–,–
D11W,0.0731,0.0868,0.0948,0.0551,0.0687,0.0625,0.0686,0.0738,0.0566,0.0854,0.0477,0.124,0.0792,0.0603,0.0597,0.0612,0.0426,0.0514,–
S32A,0.0724,0.0717,0.0453,0.051,–,0.0672,0.08,0.0682,0.0597,0.0686,–,0.111,–,0.107,0.0624,0.0683,–,0.0605,0.0518
E25K,0.0664,0.0792,–,0.0563,0.0509,0.0545,0.0581,0.0726,0.0606,0.0644,0.0583,0.104,0.0655,0.057,0.0706,0.0613,0.0616,0.0445,–
G28L,0.0681,0.0529,0.0587,0.0634,–,0.0795,0.047,0.0648,0.0499,0.054,0.0523,0.0901,0.0673,0.0616,0.0585,0.0627,0.0615,–,0.0583
G28T,0.0511,0.0646,0.0598,0.0581,0.0655,–,0.0614,0.0636,–,0.0644,0.0569,0.0969,0.0663,–,0.0591,0.0588,0.0574,–,0.0602
R10S,0.0513,0.0628,0.0664,0.0631,0.0587,0.056,0.0699,0.0777,0.0465,0.0522,0.07,0.102,–,0.0636,–,0.0601,0.0688,0.0489,0.049
R10K,0.0624,0.0647,0.0349,0.0608,0.054,0.0623,0.0617,0.0766,0.056,0.063,0.0647,0.0968,–,0.0542,–,0.0646,0.0629,0.0503,0.0579
S17W,0.0537,0.0576,0.0509,0.0545,0.0837,0.0643,0.065,0.0915,0.0629,0.0699,–,0.104,–,0.0556,0.0691,0.0497,0.0591,0.0535,0.0599
N24H,0.0571,–,0.0535,–,–,–,0.0416,0.0588,0.0542,0.0519,–,0.0895,0.0721,0.0576,–,0.0565,0.0573,–,0.0867
N24Y,0.0688,0.0735,0.0683,0.0578,0.0596,0.0595,0.072,0.0968,–,0.0623,–,–,–,0.0717,–,0.073,–,0.03,0.0596
N24Q,0.0657,–,0.064,0.0627,0.0631,0.0448,0.0438,0.082,0.0629,0.0631,0.0683,0.116,–,0.0603,0.0578,0.0675,0.0701,–,–
N24C,0.059,–,0.0392,–,0.0059,0.0536,–,0.0734,–,0.056,0.0632,–,0.0734,0.0663,0.0622,0.0647,0.0625,0.0577,0.0474
N24W,0.0639,0.067,0.0534,0.0628,0.0592,0.0597,0.0663,–,0.0708,0.0341,0.0647,–,0.029,0.0602,–,0.0467,0.0708,–,0.0595
N24R,0.0591,0.0574,0.103,–,0.0569,0.0553,–,–,0.085,0.059,0.0744,0.0598,0.062,0.0631,0.107,0.062,0.0557,–,–
N24T,0.058,0.0593,0.0556,0.0611,0.0548,–,–,–,–,0.062,0.0693,0.0747,0.0607,–,–,0.0624,0.0522,0.0579,0.0493
L5E,0.0647,0.0752,0.0599,–,0.0603,0.0641,0.0599,–,0.0535,0.0609,0.0579,0.101,–,0.058,0.0814,0.0462,0.0616,–,0.0464
D27P,0.0631,0.0803,0.0755,0.063,0.0606,–,0.0452,0.085,0.0409,0.0641,0.0579,0.105,–,0.0596,–,0.0671,0.0592,0.0618,0.0539
S4D,0.0569,0.069,0.0553,0.0618,0.0639,0.0551,0.0573,0.0872,0.059,–,0.0566,0.128,0.0046,0.0473,–,0.0553,0.0605,0.0024,–
T31E,0.0573,0.0062,0.0602,0.0618,0.0719,0.0633,0.0851,0.0716,0.0667,0.0597,–,0.0805,0.0984,0.0601,0.0573,0.0573,0.0656,0.0363,–
I19R,0.0545,0.049,0.05,0.0567,0.0503,0.0443,0.0422,0.0466,0.047,0.0497,–,0.0605,–,0.0524,0.0468,0.0644,0.0766,0.0555,0.0262
P14I,0.0575,0.0694,–,0.0626,0.0589,–,0.0605,0.0658,0.0659,0.0669,0.0586,0.0754,0.0493,0.057,0.0599,0.0596,0.0548,0.0594,–
